According to PubChem BioAssay AID1460 (National Center for Advancing Translational Sciences (NCATS), 2008):
Several values for one entry are separate records, joined by “and”; a condition that tells them apart may be missing. Equal values may be shown once. Out of some 270,000 compounds screened, about 5,800 (2.1%) were called active. Inconclusive results, whose numbers are uncertain, are shown with a selection of clear calls. Calls come from the whole dose curve; as a rule, active = well fitted inhibition curve with a large enough effect; inconclusive = small, poorly fitted or top-dose-only effect; inactive = flat fitted curve, though single readings scatter. Where the call is inconclusive, the potency comes from a doubtful curve fit.

What follows are molecules tested against Microtubule-associated protein tau (Homo sapiens) (UniProt P10636) (assay: qHTS for Inhibitors of Tau Fibril Formation, Thioflavin T Binding). Settings: recombinant tau K18 P301L, heparin-induced fibrillization, ThT fluorescence; series mostly up to 57.4 µM; activity, negative = inhibition: at the top concentration.
Sequence of UniProt P10636 (P10636 whole entry, looked up): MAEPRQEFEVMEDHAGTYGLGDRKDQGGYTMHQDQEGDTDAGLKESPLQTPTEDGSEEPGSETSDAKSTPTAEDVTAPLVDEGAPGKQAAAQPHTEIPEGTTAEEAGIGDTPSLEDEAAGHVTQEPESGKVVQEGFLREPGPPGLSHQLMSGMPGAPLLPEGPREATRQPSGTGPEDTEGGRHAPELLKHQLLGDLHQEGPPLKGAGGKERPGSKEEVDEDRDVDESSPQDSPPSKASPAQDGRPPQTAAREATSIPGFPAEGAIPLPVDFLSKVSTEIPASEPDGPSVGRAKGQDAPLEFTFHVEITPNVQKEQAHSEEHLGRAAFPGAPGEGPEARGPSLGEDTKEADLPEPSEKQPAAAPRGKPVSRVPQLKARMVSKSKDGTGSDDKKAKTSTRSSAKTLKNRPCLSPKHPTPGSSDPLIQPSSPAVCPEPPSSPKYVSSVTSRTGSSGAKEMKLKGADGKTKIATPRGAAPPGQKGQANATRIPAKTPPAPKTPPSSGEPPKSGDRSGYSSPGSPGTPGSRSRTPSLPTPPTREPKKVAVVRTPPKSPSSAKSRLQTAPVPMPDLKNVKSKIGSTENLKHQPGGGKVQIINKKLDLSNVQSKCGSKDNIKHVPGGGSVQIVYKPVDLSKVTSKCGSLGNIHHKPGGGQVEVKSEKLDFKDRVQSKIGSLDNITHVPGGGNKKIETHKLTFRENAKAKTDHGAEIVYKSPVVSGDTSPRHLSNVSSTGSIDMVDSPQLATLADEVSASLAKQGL
Outline: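 ThT emission at 510 nm, taken 1 hr after adding 30 uM dye, quantifies aggregates formed when 20 uM heparin acts on human tau K18 P301L for 6 hr at 37 C.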
% is set by controls: 0 for no effect and ±100 for the full control effect; potency is the fitted concentration of half-maximal effect; tags give direction and shape of the fitted curve.
Note: nearly all actives have a fitted effect of over 55% in size.

Row | SMILES | Potency | activity, negative = inhibition
1 | COc1ccc(/C=N/Nc2ccccc2)cc1Cn1nc(C)c([N+](=O)[O-])c1C | inconclusive: 15.8 µM [inhibitor, partial curve] | 
2 | COCCCNC(=S)N/N=C/c1ccc(O)cc1O |  | inactive: -7.78%
3 | Cc1cc(Cl)ccc1NC(=O)CN1C(=O)C(=O)c2ccccc21 | inconclusive: 17.8 µM [inhibitor, single point] | 
4 | Cc1cccc(C(=O)c2c(N)sc3c2CCCC3)c1 | inconclusive: 31.6 µM [inhibitor, single point] | 
5 | O=C(Nc1nnc(SCc2ccc(F)cc2)s1)c1ccccn1 | inconclusive: 14.1 µM [inhibitor, partial curve] | 
6 | COc1ccc(/C=N/NC(=O)CSc2ccccc2)cc1OC |  | inactive: -12.6%
7 | CCCc1ccc(NC(=O)C2CCN(c3cnccn3)CC2)cc1 | inconclusive: 17.8 µM [inhibitor, single point] | 
8 | CCCOc1ccc(C(=O)C(CN2CCCC2)c2ccccc2)cc1 (centres undefined) | inconclusive: 22.4 µM [inhibitor, single point] | 
9 | O=C(O)CCN1c2ccccc2Sc2ccccc21 |  | inactive: -11.2%
10 | Cc1ccc(NC(=O)Cc2ccc(NC(=O)N3CCCCc4ccccc43)cc2)cc1 |  | inactive: 0.89%
11 | Cc1nn(Cc2ccccc2)c(C)c1C(=O)OCC(=O)c1cc(C)n(C2CC2)c1C |  | inactive: -14.7%
12 | Cc1ccc2nc(N/C(N)=N/S(=O)(=O)c3ccc([N+](=O)[O-])cc3)nc(C)c2c1 | inconclusive: 15.8 µM [inhibitor, partial curve] | 
13 | COc1ccc(NC(=O)c2ccco2)cc1NC(=O)COc1ccc(C)cc1C | inconclusive: 2.82 µM [inhibitor, partial curve] | 
14 | Cc1ccc(NC(=O)CSc2[nH]c(=O)ncc2C)cc1 |  | inactive: -9.71%
15 | Cc1cccc(C)c1N1CCN(c2ccc3nnc(C(F)(F)F)n3n2)CC1 | inconclusive: 28.2 µM [inhibitor, partial curve] | 
16 | CCOC(=O)c1cc2ccc(OC(=O)c3ccco3)cc2oc1=O | inconclusive: 17.8 µM [inhibitor, partial curve] | 
17 | CC1(C)CC(=O)C2=C(C1)Nc1nc(SCCN3CCOCC3)[nH]c(=O)c1C2c1cccs1 (centres undefined) |  | inactive: -11.3%
18 | O=C(Nc1ccc2c(c1)OCO2)c1ccc2nc[nH]c2c1 | inconclusive: 25.1 µM [inhibitor, partial curve] | 
19 | CCOC(=O)c1c(CSc2ccsc2)n(C)c2cc(Br)c(O)c(CN(C)C)c12 | inconclusive: 14.1 µM [inhibitor, partial curve, poor fit] | 
20 | CC(=O)c1ccc(N2CCN(C(=O)Nc3cccc(F)c3)CC2)cc1 | inconclusive: 6.31 µM [inhibitor, partial curve] and inconclusive: 15.8 µM [inhibitor, partial curve] | 
21 | CCN(CC)c1ccc(C(=O)NCc2ccc3c(c2)CCN3C(C)=O)cc1 |  | inactive: -5.06%
22 | CC(C)CC(=O)Nc1c(C(=O)N2CCN(c3ccccc3F)CC2)oc2ccccc12 | inconclusive: 12.6 µM [inhibitor, partial curve] | 

Row | SMILES | Potency | activity, negative = inhibition
23 | Nc1ccc(-c2nc3cc([N+](=O)[O-])ccc3o2)cc1 | inconclusive: 10 µM [inhibitor, partial curve] | 
24 | COc1ccc(CC(=O)Nc2cccc(-c3nnc(-c4ccccc4)o3)c2)cc1OC | inconclusive: 39.8 µM [inhibitor, single point] | 
25 | CCO[C@@H]1OC(C(=O)NC2CC2)=C[C@H](c2ccccc2)[C@H]1CCCO | inconclusive: 0.141 µM [activator, single point] | 
26 | C#CC(C)OC(=O)c1nnc2c3ccccc3n(COC)c2n1 (centres undefined) |  | inactive: -7.4% [at 11.5 µM]
27 | CCc1ccc(NC(=S)Nc2ccc3cn[nH]c3c2)cc1 | inconclusive: 25.1 µM [inhibitor, partial curve] | 
28 | Cc1cccc(N2CCN(c3ccc(C(=O)O)cc3NC(=O)c3ccccc3F)CC2C)c1 (centres undefined) | inconclusive: 17.8 µM [inhibitor, single point] | 
29 | CCOC(=O)N1CCN(c2nc(N(c3ccccc3)c3ccccc3)nc(-n3ccnc3)n2)CC1 |  | inactive: -22.4%
30 | C=CCN1CCc2nc(N)sc2CC1 | inconclusive: 28.2 µM [inhibitor, partial curve] and inconclusive: 20 µM [inhibitor, single point] | 
31 | Cc1ccc(-c2nc3sc(C#N)c(N)n3c(=O)c2C#N)cc1 | inconclusive: 6.31 µM [inhibitor, partial curve] | 
32 | Cc1ccc(CN2CCNC(=O)C2CC(=O)NCCCn2ncc3ccccc32)o1 (centres undefined) | inconclusive: 20 µM [inhibitor, single point] | 
33 | COc1ccc(CSc2nc3ccccc3[nH]2)cc1 |  | inactive: -11.2%
34 | COC1=C(Nc2ccc(C)cc2)C(=O)c2ccccc2C1=O | active: 8.91 µM | 
35 | CC(/C=N/NC(=O)c1cc(-c2cccn2C)n[nH]1)=C\c1ccccc1 | inconclusive: 14.1 µM [inhibitor, partial curve] | 
36 | c1cnc2c(-c3nccc4c3[nH]c3ccccc34)cccc2c1 |  | inactive: -12.9%
37 | Cc1ccc(S(=O)(=O)Nc2nc(C)c(C(=O)N/N=C/c3ccccc3)s2)cc1 | inconclusive: 20 µM [inhibitor, single point] | 
38 | COC(=O)c1c(NC(=O)CC2SC(N)=NC2=O)sc2c1CCC(C)C2 (centres undefined) |  | inactive: -15.2%
39 | CN(C)c1ccc(C(c2nnnn2CCOC(=O)Nc2ccc(Cl)cc2)N2CCOCC2)cc1 (centres undefined) | inconclusive: 10 µM [inhibitor, partial curve] | 
40 | CN1C(=O)/C(=C2/C=Cc3ccccc3N2CCCS(=O)(=O)O)SC1=S | active: 25.1 µM | 
41 | Brc1ccccc1Cn1c(-c2cscn2)nc2ccccc21 | inconclusive: 39.8 µM [inhibitor, partial curve] | 
42 | COc1cc(-c2nc3ccc(C)cn3c2Nc2ccc(Cl)cc2)ccc1O | inconclusive: 10 µM [inhibitor, partial curve] | 
43 | Cc1[nH]n(-c2ccccc2)c(=O)c1C=Nc1cnc2ccccc2c1 | inconclusive: 15.8 µM [inhibitor, partial curve] | 
44 | O=C(/C=C/c1ccc(S(=O)(=O)N2CCOCC2)cc1)NCc1ccccc1Cl |  | inactive: 8.29%
